Experimental data: the supplement of paper PMC12217912
Some of the results follow. Sequences were assembled here from the parent chain. Values near 0.05 are background.

B1: TEV protease; numbered along this chain (parent)
chain: MGESLFKGPRDYNPISSSICHLTNESDGHTTSLYGIGFGPFIITNKHLFRRNNGTLVVQSLHGVFKVKDTTTLQQHLVDGRDMIIIRMPKDFPPFPQKLKFREPQREERICLVTTNFQTKSMSSMVSDTSCTFPSGDGIFWKHWIQTKDGQCGSPLVSTRDGFIVGIHSASNFTNTNNYFTSVPKNFMELLTNQEAQQWVSGWRLNADSVLWGGHKVFMVKPEEPFQPVKEATQL

Variants of: B1
Assay: raw area under fraction-flipped curve 0-4 h after induction (AUC4h, not background-subtracted), DNA-recorder readout of cleavage of the substrate (dimensionless); higher = more cleavage of the substrate by the protease variant
Settings: temperature: 34 °C; time window: 0-4 h after rhamnose induction
Experimental: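 In vivo DNA recorder in E. coli TOP10(DE3) ΔrhaA at 34 °C. Each TEVp single-site mutant (parent TEVp 0) is paired with a single-site variant of the 7-mer TEVs (canonical ENLYFQ|S). The substrate sits between flexible linkers in a Bxb1-sfGFP-TEVs-SsrA fusion, so cleavage stabilises Bxb1 and speeds flipping of a recombination array, read by NGS. The value is the raw area under the fraction-flipped curve over 0-4 h after rhamnose induction (AUC4h), with ≥20 reads per time point. It is not background-subtracted; inactive controls average about 0.047.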
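Note: Bxb1 expression induced with 0.2% (w/v) L-rhamnose at OD600 near 0.5, cultures sampled hourly, flipped fraction per protease–substrate barcode pair counted by paired-end Illumina sequencing.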

| Variant | area with substrate ENLYFQA | area with substrate ENLYFQC | area with substrate ENLYFQD | area with substrate ENLYFQF | area with substrate ENLYFQG | area with substrate ENLYFQH | area with substrate ENLYFQI | area with substrate ENLYFQK | area with substrate ENLYFQL | area with substrate ENLYFQM | area with substrate ENLYFQN | area with substrate ENLYFQP | area with substrate ENLYFQR | area with substrate ENLYFQS | area with substrate ENLYFQW | area with substrate ENLYFQY | area with substrate ENLYFQT | area with substrate ENLYFQV | area with substrate ENLYFQQ | area with substrate ENLYFQE |
| --- | --- | --- | --- | --- | --- | --- | --- | --- | --- | --- | --- | --- | --- | --- | --- | --- | --- | --- | --- | --- |
| MGESLFKGPRDYNPISSSICHLTNESDGHTTSLYGIGFGPFIIYNKHLFRRNNGTLVVQSLHGVFKVKDTTTLQQHLVDGRDMIIIRMPKDFPPFPQKLKFREPQREERICLVTTNFQTKSMSSMVSDTSCTFPSGDGIFWKHWIQTKDGQCGSPLVSTRDGFIVGIHSASNFTNTNNYFTSVPKNFMELLTNQEAQQWVSGWRLNADSVLWGGHKVFMVKPEEPFQPVKEATQL [T44Y] | 0.04 | 0.0451 | 0.043 | 0.0469 | 0.0368 | 0.0457 | 0.0475 | 0.0567 | 0.0386 | 0.0403 | 0.0425 | 0.0416 | 0.0523 | 0.0441 | 0.0437 | 0.0378 |  |  |  |  |
| MGESLFKGPRDYNPISSSICHLTNESDGHTTSLYGIGFGPFIICNKHLFRRNNGTLVVQSLHGVFKVKDTTTLQQHLVDGRDMIIIRMPKDFPPFPQKLKFREPQREERICLVTTNFQTKSMSSMVSDTSCTFPSGDGIFWKHWIQTKDGQCGSPLVSTRDGFIVGIHSASNFTNTNNYFTSVPKNFMELLTNQEAQQWVSGWRLNADSVLWGGHKVFMVKPEEPFQPVKEATQL [T44C] | 0.0947 | 0.0916 | 0.0729 | 0.0717 |  | 0.0749 | 0.0523 | 0.0571 | 0.0579 | 0.04 | 0.0739 | 0 | 0.0588 | 0.0919 | 0.0629 |  | 0.0651 | 0.0358 |  |  |
| MGESLFKGPRDYNPISSSICHLTNESDGHTTSLYPIGFGPFIITNKHLFRRNNGTLVVQSLHGVFKVKDTTTLQQHLVDGRDMIIIRMPKDFPPFPQKLKFREPQREERICLVTTNFQTKSMSSMVSDTSCTFPSGDGIFWKHWIQTKDGQCGSPLVSTRDGFIVGIHSASNFTNTNNYFTSVPKNFMELLTNQEAQQWVSGWRLNADSVLWGGHKVFMVKPEEPFQPVKEATQL [G35P] | 0.0341 |  |  |  | 0.0287 | 0.0535 | 0.0525 |  | 0.0367 | 0.0427 | 0.0399 |  | 0.0647 | 0.0467 |  |  |  |  |  |  |
| MGESLFKGPRDYNPISSSICHLTNESDGHTTSLYGIGFGEFIITNKHLFRRNNGTLVVQSLHGVFKVKDTTTLQQHLVDGRDMIIIRMPKDFPPFPQKLKFREPQREERICLVTTNFQTKSMSSMVSDTSCTFPSGDGIFWKHWIQTKDGQCGSPLVSTRDGFIVGIHSASNFTNTNNYFTSVPKNFMELLTNQEAQQWVSGWRLNADSVLWGGHKVFMVKPEEPFQPVKEATQL [P40E] | 0.117 | 0.153 | 0.0808 |  |  | 0.0864 | 0.0702 | 0.0611 | 0.0584 |  |  | 0.0474 |  | 0.111 |  |  | 0.0564 | 0.0529 |  |  |
| MGESLFKGPRDYNPISSSICHLTNESDGHTTSLGGIGFGPFIITNKHLFRRNNGTLVVQSLHGVFKVKDTTTLQQHLVDGRDMIIIRMPKDFPPFPQKLKFREPQREERICLVTTNFQTKSMSSMVSDTSCTFPSGDGIFWKHWIQTKDGQCGSPLVSTRDGFIVGIHSASNFTNTNNYFTSVPKNFMELLTNQEAQQWVSGWRLNADSVLWGGHKVFMVKPEEPFQPVKEATQL [Y34G] | 0.115 |  | 0.0651 |  |  |  |  | 0.0665 |  | 0.0725 | 0.0583 |  |  | 0.0933 | 0.0562 | 0.0668 | 0.0544 | 0.0622 | 0.072 |  |
| MGESLFKGPRDYNPISSSICHLTNESDGHTTSLIGIGFGPFIITNKHLFRRNNGTLVVQSLHGVFKVKDTTTLQQHLVDGRDMIIIRMPKDFPPFPQKLKFREPQREERICLVTTNFQTKSMSSMVSDTSCTFPSGDGIFWKHWIQTKDGQCGSPLVSTRDGFIVGIHSASNFTNTNNYFTSVPKNFMELLTNQEAQQWVSGWRLNADSVLWGGHKVFMVKPEEPFQPVKEATQL [Y34I] | 0.0417 | 0.108 |  | 0.0437 |  | 0.0645 | 0.0601 |  | 0.0458 | 0.0765 | 0.0745 |  | 0.0486 | 0.0853 |  |  | 0.0438 |  | 0.0493 |  |
| MGESLFKGPRDYNPISSSICHLTNESDGHTTSLYGIGFGPFNITNKHLFRRNNGTLVVQSLHGVFKVKDTTTLQQHLVDGRDMIIIRMPKDFPPFPQKLKFREPQREERICLVTTNFQTKSMSSMVSDTSCTFPSGDGIFWKHWIQTKDGQCGSPLVSTRDGFIVGIHSASNFTNTNNYFTSVPKNFMELLTNQEAQQWVSGWRLNADSVLWGGHKVFMVKPEEPFQPVKEATQL [I42N] | 0.0358 | 0.047 |  |  |  | 0.0609 | 0.036 | 0.0449 | 0.0468 | 0.0393 | 0.0324 | 0.0481 | 0.0316 | 0.0428 | 0.0469 |  | 0.0437 | 0.0272 |  |  |
| MGESLFKGPRDYNPISSSICHLTNESDGHTTSLYGIGFGPFIITKKHLFRRNNGTLVVQSLHGVFKVKDTTTLQQHLVDGRDMIIIRMPKDFPPFPQKLKFREPQREERICLVTTNFQTKSMSSMVSDTSCTFPSGDGIFWKHWIQTKDGQCGSPLVSTRDGFIVGIHSASNFTNTNNYFTSVPKNFMELLTNQEAQQWVSGWRLNADSVLWGGHKVFMVKPEEPFQPVKEATQL [N45K] | 0.0677 | 0.0519 |  | 0.0323 | 0.0668 | 0.0663 | 0.0525 | 0.0696 | 0.0537 | 0.0544 | 0.0692 | 0.0541 | 0.0582 | 0.0598 | 0.0557 | 0.0601 | 0.042 |  |  | 0.0576 |
| MGESLFKGPRDYNPISSSICHLTNESDGHTTSLYGIGFGPFIITNYHLFRRNNGTLVVQSLHGVFKVKDTTTLQQHLVDGRDMIIIRMPKDFPPFPQKLKFREPQREERICLVTTNFQTKSMSSMVSDTSCTFPSGDGIFWKHWIQTKDGQCGSPLVSTRDGFIVGIHSASNFTNTNNYFTSVPKNFMELLTNQEAQQWVSGWRLNADSVLWGGHKVFMVKPEEPFQPVKEATQL [K46Y] | 0.073 | 0.0837 | 0.063 | 0.0474 | 0.159 | 0.0538 | 0.0418 | 0.0482 | 0.0553 | 0.0382 | 0.0552 |  | 0.059 | 0.0621 | 0.0599 |  |  | 0.0541 | 0.0448 | 0.0774 |
